Data: PubChem BioAssay AID1508624 (National Center for Advancing Translational Sciences (NCATS), 2021)
About 120 (0.25%) of roughly 48,000 compounds were called active. Not shown: some 4% with an inconclusive outcome. The call rests on the fitted dose curve; in most records, active means well fitted activation curve with a large enough effect; inconclusive means small, poorly fitted or top-dose-only effect, or another doubt; inactive means no such curve, though single readings can be large or run the other way. This is one part of the list.

Experiment: Primary qHTS for Identification of Small Molecule Activators of Huntingtin-Antisense Promoter Activity; further: nearly all actives have a fitted effect of over 55% in size
Conditions: HEK293 HTT-AS promoter firefly luciferase reporter, 24 h; series mostly up to 57.5 µM; activity change, positive = activation: at the top concentration
Outline: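 HEK293 Fluc reporter, 2,500 cells/well, 24 h pre-culture; cpds up to 57.5 uM final, 24 h 37 degrees C; Dual-Glo, 10 min RT; normalized vehicle = 0%, zero RLU = -100%.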

Activity change, positive = activation, inactive:
COc1ccc2[nH]cc(CCN=C(NC(=O)c3cccc(Cl)c3)Nc3nc(C)cc(C)n3)c2c1 -15.3%
CCc1ccccc1NC(=O)CC(C)S(=O)(=O)c1ccc2c(c1)NC(=O)CO2 (stereo not given) -8.22%
CCc1ccc2occ(CC(=O)Nc3nnc(C)s3)c2c1 -8.59%
CCNC(=O)C1CCN(c2nc3ccccc3nc2C(F)(F)F)CC1 10.2%
O=C(CSc1nc2c([nH]c3ccccc32)c(=O)n1-c1ccccc1)NCc1ccc(F)cc1 -32.5%
O=C(CN1C(=O)C2(SCC(=O)N2c2ccccc2)c2ccccc21)Nc1ccccc1C(F)(F)F (stereo not given) -16.3%
CC(=O)c1nn(-c2ccc(OC(F)(F)F)cc2)nc1Nc1ccc(Cl)cc1 -1.29%
CCOc1ccc(NC(=O)Cn2cc(S(=O)(=O)c3ccc(C)cc3)c(=O)c3cc(F)ccc32)cc1 -26.5%
COc1ccc(C(=O)c2cnc3ccc(C)cc3c2S(=O)(=O)c2ccccc2)cc1 -53.2%
COc1ccc(S(=O)(=O)N2CCC(C(=O)NC(C)c3ccccc3)CC2)cc1 (stereo not given) 0.852%
Cc1ccc(CN2C(=O)C(O)(CC(=O)c3ccc(C)cc3)c3ccccc32)cc1 (stereo not given) -19.1%
CCc1nn(CCCC(=O)NCc2ccc(OC)c(OC)c2)c(=O)c2cc3occc3n12 -18.5%
COC(=O)C1CCN(c2csc3ccc(C)cc3c2=O)CC1 24.4%
CCN(CCCNC(=O)c1ccc(Sc2ccc(Cl)cc2)c(NC(C)=O)c1)c1cccc(C)c1 -31.5%
c1ccc(N2CCN(c3ncnc4c3nc3n4CCCCC3)CC2)cc1 -53.5%
Cc1ccc(C)c(NC(=O)CN(Cc2ccccc2)S(=O)(=O)c2ccc3nc(C)sc3c2)c1 -25.9%
CN1c2ccccc2-c2nc(SCC(=O)Nc3ccccc3)ncc2S1(=O)=O -22.8%
CCN(CC)c1ccc(-c2nc(-c3ccccn3)no2)cc1[N+](=O)[O-] -43.7%
NCc1ccccc1Sc1ccccc1CO -1.84%
COc1cc(C2Oc3nc(SC)nnc3-c3ccccc3N2C(C)=O)cc(Cl)c1OC (stereo not given) 9.37% [at 11.5 µM, percent change from vehicle, -100% = no light]
Cc1cc(Br)ccc1NC(=O)c1sc2ncn(Cc3ccccc3Cl)c(=O)c2c1C -3.77%
O=C(CSc1oc(-c2ccco2)nc1S(=O)(=O)c1ccc(Br)cc1)c1ccc(Cl)cc1 -19.4%
C[C@]1(c2nc3c(C(N)=O)cccc3[nH]2)CCCN1 -9.03%
CCN1C(=O)c2ccccc2S(=O)(=O)c2ccc(C(=O)NCc3ccc(F)cc3)cc21 -27.7%
Cc1ccc(CNC(=O)CN2C(=O)COc3ccc(S(=O)(=O)N4CCC(C)CC4)cc32)cc1 -26.2%
Nc1c(NC/C=C\COc2cc(CN3CCCCC3)ccn2)c(=O)c1=O -8.57% [at 25.1 µM, percent change from vehicle, -100% = no light]
CC(=O)N[C@@H](CS)C(=O)O 0.523%
COc1ccc(NC(=O)c2ccc3[nH]c(C)cc(=O)c3c2)cc1 2.4%
Cc1ccc(NC(=O)Cc2coc3c(C)c(C)ccc23)c(C)c1 -8.47%
Cc1ccc(-n2cc(C(=O)OCc3ccc(Cl)cc3)c3ccccc3c2=O)cc1 -17.9%
Cc1ccc(N2CC(NC(=O)C3CCCC3)CC2=O)cc1 (stereo not given) -16.1%
CC(C)CCNC(=O)c1ccc(NC(=O)N2CCCCc3ccccc32)cc1 -3.29%
COc1cccc(N2CCN(C(=O)Cn3ncc4c3-c3ccccc3OC4)CC2)c1 -21.5%
CCOc1ccc(Nc2c(S(=O)(=O)c3ccccc3)cnc3ccc(CC)cc23)cc1 -30.8%
Cc1ccc(C(=O)c2cn(CC(=O)Nc3ccc4c(c3)OCCO4)c3nc(C)ccc3c2=O)cc1 -18.9%
O=C(CSc1nc2ccccc2n1Cc1ccccc1)NCc1ccccc1 -15.3%
CC(C)CC(NC(=O)C1CCC(C)CC1)C(=O)OCC(=O)c1ccc(Cl)cc1 (stereo not given) -22.6%
CSc1oc(-c2ccc(F)cc2)nc1S(=O)(=O)c1ccc(Br)cc1 -14.4%
CN1Cc2cc(C(=O)N3CCC(C4CCNCC4)CC3)ccc2N[C@@H](CC(=O)O)C1=O -3.12%
Cc1cccc(NC(=O)CCS(=O)(=O)c2cc(Br)cc3c2N(C(=O)C2CC2)CC3)c1C -7.45%
CC1=C(C(=O)Nc2cccnc2)C(c2ccc(F)cc2)n2nc(SCc3ccccc3)nc2N1 (stereo not given) -4.28%
CCCNC(=O)Cn1nc(C)c2c(C)n(-c3ccccc3)nc2c1=O -15.1%
CC1CCN(S(=O)(=O)c2cccc(C(=O)N(C)C3(C)CCS(=O)(=O)C3)c2)CC1 (stereo not given) -22.4%
COc1cc(OC)c(NC(=O)CSc2nc3ccncc3[nH]2)cc1Cl -33.4%
CC(NC(=O)C1CCN(C(=O)N2CCOc3ccccc32)CC1)c1ccccc1 (stereo not given) -5.28%
CCCCOC(=O)CCCCCCCCC(=O)OCCCC 1.76%
CCCCNC(=O)CSc1nc2ccccc2nc1Cc1ccccc1 -8.07%
Cc1ccc(NC(=O)N2CCC(CN3CCCCC3)CC2)c(Cl)c1 -8.32%
CCn1cc(/C=C(\NC(=O)c2ccc(OC)c(OC)c2)C(=O)NCCCn2ccnc2)c2ccccc21 -6.62%
CCOC(=O)c1cc(-c2ccc(OC)cc2)n(CCC(=O)NCCc2ccc(OCC)c(OCC)c2)c1C -24.1%
Cc1nc2sccn2c(=O)c1S(=O)(=O)Nc1cccc(Cl)c1C -23%
CC(=O)c1ccc(N2CCN(S(=O)(=O)c3ccc(-c4cnc(C5CC5)o4)cc3)CC2)cc1 0.454%
Cc1ccc(OCC(=O)Nc2ccc(C(=O)OCc3cc(=O)n4ccsc4n3)cc2)cc1C -22.9%
CC1CCN(c2nc3c(S(=O)(=O)c4cccc(Cl)c4)nnn3c3ccsc23)CC1 -30.3%
Cc1ccc(N2CCN(C(=O)CCS(=O)(=O)c3cc4c(cc3Cl)NC(=O)CO4)CC2)c(C)c1 -29.7%
COc1cc([N+](=O)[O-])ccc1NC(=O)N1CCC2(CC1)Nc1cc(F)ccc1-n1cccc12 -27.8%
Cc1ccccc1Nc1nnc(-c2ccc(C)c(S(=O)(=O)NCC3CCCO3)c2)c2ccccc12 (stereo not given) -30.6%
CCOC(=O)c1c(-c2ccc(OC)cc2)oc2ccc(OCc3ccc(F)cc3F)cc12 10.1% [at 11.5 µM, percent change from vehicle, -100% = no light]
CC(C)(C)OC(=O)N1CCC(c2c(C(=O)N3CCN(c4ncccn4)CC3)cnn2-c2ccc(F)cc2)CC1 -1.4%
O=C(O)Cc1cccc(OCCCN(Cc2cccc(C(F)(F)F)c2Cl)CC(c2ccccc2)c2ccccc2)c1 -12%
